# Results from PubChem BioAssay (Tox21).
# “And” between values parts separate entries of the source, which are not always exact repeats. Equal values may be shown once. Inconclusive results, whose numbers are uncertain, are shown with a selection of clear calls. For part of these data: Where the call is inconclusive, the potency comes from a doubtful curve fit. The source made the active and inactive calls. Unless noted, calls come from the whole dose curve; as a rule, active = well fitted curve in the direction sought with a large enough effect in the repeat runs; inconclusive = weak or mixed curves; inactive = no such curve, though single readings can be large; an effect the other way counts as inactive or inconclusive.
# Tests used:
# [1] = target: Androgen receptor (Homo sapiens) (UniProt P10275); experiment: qHTS assay to identify small molecule antagonists of the androgen receptor (AR) signaling pathway using the MDA cell line in the presence of 0.5 nM R1881 (AID 1259243); note: nearly all actives have a fitted effect of over 50% in size; note: potency is the fitted concentration of half-maximal effect
# Chain of UniProt P10275 (P10275 whole entry, looked up): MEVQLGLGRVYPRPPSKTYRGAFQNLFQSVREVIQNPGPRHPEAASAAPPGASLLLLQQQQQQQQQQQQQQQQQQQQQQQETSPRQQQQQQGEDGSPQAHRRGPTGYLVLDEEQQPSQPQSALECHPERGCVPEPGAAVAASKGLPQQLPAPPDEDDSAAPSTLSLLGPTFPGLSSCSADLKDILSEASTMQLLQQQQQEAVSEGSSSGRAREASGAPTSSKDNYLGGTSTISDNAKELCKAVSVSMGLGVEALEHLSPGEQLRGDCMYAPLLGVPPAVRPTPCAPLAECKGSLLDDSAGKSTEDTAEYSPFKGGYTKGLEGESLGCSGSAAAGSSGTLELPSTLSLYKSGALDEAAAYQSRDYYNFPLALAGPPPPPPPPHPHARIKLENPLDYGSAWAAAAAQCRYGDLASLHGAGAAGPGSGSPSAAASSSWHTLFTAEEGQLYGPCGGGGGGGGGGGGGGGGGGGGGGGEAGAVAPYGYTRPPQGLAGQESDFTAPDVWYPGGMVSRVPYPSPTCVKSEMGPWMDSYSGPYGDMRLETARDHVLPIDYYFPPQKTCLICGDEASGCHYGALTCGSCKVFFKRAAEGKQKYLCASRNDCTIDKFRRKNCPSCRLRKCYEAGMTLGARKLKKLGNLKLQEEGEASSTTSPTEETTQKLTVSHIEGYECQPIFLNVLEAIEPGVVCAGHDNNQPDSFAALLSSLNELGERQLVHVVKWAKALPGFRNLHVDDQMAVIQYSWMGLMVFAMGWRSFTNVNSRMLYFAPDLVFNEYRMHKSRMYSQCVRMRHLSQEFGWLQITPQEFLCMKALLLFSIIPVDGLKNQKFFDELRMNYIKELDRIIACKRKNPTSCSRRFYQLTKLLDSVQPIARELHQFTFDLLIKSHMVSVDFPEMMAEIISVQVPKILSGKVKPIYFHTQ
# In short: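 Cells: MDA-kb2 (MMTV-luc). Stimulus: 0.5 nM R1881. Time: 16 hr, 37C, no CO2. Detection: ONE-Glo luminescence after 30 min at RT.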
# [2] = qHTS assay to identify small molecule antagonists of the sonic hedgehog signaling (Shh) pathway (AID 1259369; calls by dose curve; note: potency is the fitted concentration of half-maximal effect; nearly all actives have a fitted effect of over 45% in size)
# In short: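 Gli1 transcriptional reporter (firefly Luc) in NIH/3T3 background, conditioned-medium activated. 24hr exposure, luminescence endpoint.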
# [3] = target: Estrogen receptor beta (Homo sapiens) (UniProt Q92731); experiment: qHTS assay to identify small molecule antagonists of the estrogen receptor beta (ER-beta) signaling pathway (AID 1259378; active = well fitted inhibition curve with a large enough effect in the signal ratio in the repeat runs, not every such curve was filed as active; inconclusive = weak or mixed curves, or effect the other way; inactive = no such curve, though single readings can be large or run the other way; the % refers to the signal ratio; note: potency is the fitted concentration of half-maximal effect; for activity, negative = inhibition: % is set by controls: 0 for no effect and ±100 for the full control effect); details: ER-beta-UAS-bla HEK293T, beta-lactamase FRET ratio, 16 h; activity, negative = inhibition: at 92.4 µM (top of the series) unless noted
# Chain of UniProt Q92731 (Q92731 whole entry, looked up): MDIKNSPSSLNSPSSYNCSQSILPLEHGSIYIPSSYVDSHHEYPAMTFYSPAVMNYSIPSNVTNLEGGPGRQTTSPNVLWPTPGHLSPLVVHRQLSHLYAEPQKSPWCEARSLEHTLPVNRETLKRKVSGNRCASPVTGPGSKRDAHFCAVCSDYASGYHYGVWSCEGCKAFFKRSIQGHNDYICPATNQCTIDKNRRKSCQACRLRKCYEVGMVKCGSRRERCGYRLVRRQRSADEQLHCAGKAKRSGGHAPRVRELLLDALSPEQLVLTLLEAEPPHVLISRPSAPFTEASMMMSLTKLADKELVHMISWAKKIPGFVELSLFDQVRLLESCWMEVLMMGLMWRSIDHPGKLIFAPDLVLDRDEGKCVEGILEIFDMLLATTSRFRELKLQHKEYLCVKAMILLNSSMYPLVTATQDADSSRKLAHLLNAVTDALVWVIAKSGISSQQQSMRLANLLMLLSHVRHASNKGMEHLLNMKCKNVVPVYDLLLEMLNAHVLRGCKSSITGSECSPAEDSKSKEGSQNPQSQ
# In short: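 ER-beta-UAS-bla HEK293T cells in 2% charcoal-stripped FBS medium treated with compound plus 1nM final 17-beta-estradiol for 16 hr at 37C. Beta-lactamase reporter read by FRET substrate fluorescence after 2 hours at room temperature.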
# [4] = qHTS assay to identify small molecule antagonists of the estrogen receptor beta (ER-beta) signaling pathway - cell viability counter screen (AID 1259382); note: potency is the fitted concentration of half-maximal effect; nearly all actives have a fitted effect of over 55% in size
# In short: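 HEK293T ER-beta-UAS-bla, 2% charcoal-stripped FBS; compounds + 1nM E2 16 hr 37C; CellTiter-Glo luminescence, 30 min RT.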
# [5] = target: Thyrotropin receptor (Homo sapiens) (UniProt P16473); experiment: qHTS assay to identify small molecule antagonists of the thyroid stimulating hormone receptor (TSHR) signaling pathway (AID 1259385; calls by dose curve; note: nearly all actives have a fitted effect of over 20% in size; note: potency is the fitted concentration of half-maximal effect; for activity change, negative = inhibition: % is set by controls: 0 for no effect and ±100 for the full control effect); details: TSHR-HEK293 cAMP HTRF, TSH-stimulated antagonist mode; activity change, negative = inhibition: at 92.4 µM (top of the series) unless noted
# Chain of UniProt P16473 (P16473 whole entry, looked up): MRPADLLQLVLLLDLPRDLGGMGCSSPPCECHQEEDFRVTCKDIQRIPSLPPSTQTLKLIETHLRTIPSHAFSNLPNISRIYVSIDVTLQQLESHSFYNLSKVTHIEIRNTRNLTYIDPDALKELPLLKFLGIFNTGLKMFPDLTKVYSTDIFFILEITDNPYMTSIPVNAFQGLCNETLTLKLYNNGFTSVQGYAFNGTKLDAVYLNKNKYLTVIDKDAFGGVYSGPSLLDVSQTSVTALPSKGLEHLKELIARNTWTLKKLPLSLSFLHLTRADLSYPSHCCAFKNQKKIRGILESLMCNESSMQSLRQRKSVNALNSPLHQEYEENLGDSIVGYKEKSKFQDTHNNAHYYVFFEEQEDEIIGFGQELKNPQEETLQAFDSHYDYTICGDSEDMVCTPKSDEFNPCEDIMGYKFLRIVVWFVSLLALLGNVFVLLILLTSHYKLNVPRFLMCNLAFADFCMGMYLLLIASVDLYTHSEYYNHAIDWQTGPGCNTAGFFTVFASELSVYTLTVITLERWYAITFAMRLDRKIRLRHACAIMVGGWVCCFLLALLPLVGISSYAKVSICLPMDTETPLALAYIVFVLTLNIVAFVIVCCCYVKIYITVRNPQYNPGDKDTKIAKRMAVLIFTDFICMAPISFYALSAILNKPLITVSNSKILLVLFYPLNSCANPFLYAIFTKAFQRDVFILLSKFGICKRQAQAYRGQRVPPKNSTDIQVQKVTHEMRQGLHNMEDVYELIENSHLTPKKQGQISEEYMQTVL
# In short: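 TSHR-HEK293 cells (800/well) plated 18 h, then compounds with Ro20-1724 and TSH at 1.5 ng/mL final, 30 min at room temperature. cAMP quantified by HTRF (cAMP-d2/anti-cAMP-cryptate, 1 h); 15 concentrations in triplicate.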
# [6] = qHTS assay to identify small molecule agonists of the estrogen receptor alpha (ER-alpha) signaling pathway in the presence of an antagonist - cell viability counter screen (AID 1259386);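 note: cells exposed to compounds for 22 h at 37 °C before the viability read; nearly all actives have a fitted effect of over 30% in size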; note: potency is the fitted concentration of half-maximal effect
# In short: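 Steps: 5-day stripped-FBS culture; seed and incubate 24hr; add ICI-182,780 (10.0nM final); pin 15-point compound titration; incubate 22hr at 37C; add CellTiter-Fluor at 21hr; read fluorescence.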
# [7] = qHTS assay to identify small molecule antagonists of the androgen receptor (AR) signaling pathway using the MDA cell line in the presence of 0.5 nM R1881 - cell viability counter screen (AID 1259242); note: potency is the fitted concentration of half-maximal effect; nearly all actives have a fitted effect of over 45% in size
# In short: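 Human breast carcinoma MDA-kb2 cells, cultured without CO2, receive compounds alongside 0.5 nM (final) R1881 agonist. After 16 hr at 37C, viability is taken as live-cell protease signal.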
# [8] = qHTS assay to identify small molecule antagonists of the sonic hedgehog signaling (Shh) pathway - cell viability counter screen (AID 1259367); note: potency is the fitted concentration of half-maximal effect; nearly all actives have a fitted effect of over 55% in size
# In short: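 Fluorescence read-out (CellTiter-Fluor, 1 hr at 37C) taken after 23 hr compound treatment of 3T3 Gli1-Luc cells stimulated with conditioned medium. Cells were seeded at 2,000 per well and pre-incubated 4 hr.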
# [9] = qHTS assay to identify small molecule agonists of the androgen receptor (AR) signaling pathway in the presence of an antagonist - cell viability counter screen (AID 1259379); note: potency is the fitted concentration of half-maximal effect; nearly all actives have a fitted effect of over 25% in size
# In short: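 Counter screen for cell viability run in parallel with the AR agonist-mode luciferase assay. MDA-kb2 cells were co-treated with nilutamide (3.0uM final) and compounds, then incubated 16 hr at 37C, and CellTiter-Fluor fluorescence was measured.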
# [10] = qHTS assay to identify small molecule agonists of the estrogen receptor beta (ER-beta) signaling pathway - cell viability counter screen (AID 1259380); note: potency is the fitted concentration of half-maximal effect; nearly all actives have a fitted effect of over 30% in size
# In short: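 In this qHTS counter screen, HEK293T cells carrying an ER-beta/UAS beta-lactamase reporter, grown in 2% charcoal-stripped FBS, received compound for 16 hr; ATP-based CellTiter-Glo luminescence was then read after 30 min at room temperature.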
# [11] = qHTS assay to identify small molecule agonists or antagonists of the thyroid stimulating hormone receptor (TSHR) signaling pathway - wild type cell line counter screen (AID 1259384; calls by dose curve; note: % is set by controls: 0 for no effect and ±100 for the full control effect); details: HEK293 wild type, cAMP HTRF counter-screen; cAMP activity change: at 92.4 µM (top of the series), stronger effect = higher value unless noted
# In short: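 Wild-type Hek293 cells, 800/well, 18 h at 37C, then compound with Ro20-1724 for 30 min RT. cAMP by HTRF (cAMP-d2/anti-cAMP cryptate), 1 h RT, fluorescence read. 15 concentrations, triplicates.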
# [12] = qHTS assay to identify small molecule agonists of the sonic hedgehog signaling (Shh) pathway - cell viability counter screen (AID 1259366); note: potency is the fitted concentration of half-maximal effect; nearly all actives have a fitted effect of over 50% in size
# In short: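 NIH/3T3-derived 3T3 Gli1-Luc cells (stable Gli1-responsive firefly luciferase reporter) were seeded, rested 4 hr at 37 C/5% CO2, then exposed to compounds in DMSO for 24 hr; viability was read by CellTiter-Fluor fluorescence in the same wells.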
# [13] = target: Estrogen receptor beta (Homo sapiens) (UniProt Q92731); experiment: qHTS assay to identify small molecule agonists of the estrogen receptor beta (ER-beta) signaling pathway (AID 1259377; active = well fitted activation curve with a large enough effect in the signal ratio in the repeat runs, not every such curve was filed as active; inconclusive = weak or mixed curves, or effect the other way; the % refers to the signal ratio; note: % is set by controls: 0 for no effect and ±100 for the full control effect); details: ER-beta-UAS-bla HEK293T, beta-lactamase FRET ratio, 16 h; activation: at 92.4 µM (top of the series) unless noted
# In short: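 ER-beta-UAS-bla HEK293T (GripTite) cells carrying a UAS-driven beta-lactamase reporter, in medium with 2% charcoal-stripped FBS, were exposed to compounds for 16 hr at 37C; LiveBLAzer B/G FRET substrate was then added and fluorescence read after 2 hours at room temperature.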
# [14] = target: Estrogen receptor (Homo sapiens) (UniProt P03372); experiment: qHTS assay to identify small molecule antagonists of the estrogen receptor alpha (ER-alpha) signaling pathway using the BG1 cell line in the presence of 0.1 nM 17-beta-estradiol (AID 1259244); note: potency is the fitted concentration of half-maximal effect; nearly all actives have a fitted effect of over 50% in size
# Chain of UniProt P03372 (P03372 whole entry, looked up): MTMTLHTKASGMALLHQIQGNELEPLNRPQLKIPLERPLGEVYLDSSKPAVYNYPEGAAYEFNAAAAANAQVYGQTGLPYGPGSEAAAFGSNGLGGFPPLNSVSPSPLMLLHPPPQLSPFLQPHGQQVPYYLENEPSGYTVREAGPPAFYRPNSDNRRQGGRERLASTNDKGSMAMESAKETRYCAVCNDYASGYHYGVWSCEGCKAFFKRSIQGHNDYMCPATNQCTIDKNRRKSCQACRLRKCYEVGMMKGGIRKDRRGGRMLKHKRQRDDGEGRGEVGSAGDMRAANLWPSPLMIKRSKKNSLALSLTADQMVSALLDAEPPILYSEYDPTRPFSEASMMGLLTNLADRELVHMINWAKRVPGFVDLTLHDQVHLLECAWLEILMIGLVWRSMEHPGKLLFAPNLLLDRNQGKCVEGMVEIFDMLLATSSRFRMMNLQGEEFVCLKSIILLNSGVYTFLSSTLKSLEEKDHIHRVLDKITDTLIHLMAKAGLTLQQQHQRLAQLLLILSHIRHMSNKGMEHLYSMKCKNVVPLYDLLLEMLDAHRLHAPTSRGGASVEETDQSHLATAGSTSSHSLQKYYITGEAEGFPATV
# In short: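 Seeding of stripped-serum-adapted VM7Luc4E2 cells, 24 h attachment, compound transfer, then 0.1 nM final 17beta-estradiol; after 22 h incubation, ONE-Glo reagent and luminescence reading.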
# [15] = qHTS assay to identify small molecule HDAC inhibitors (AID 1259364);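 note: wild-type HCT-116 cells with endogenous class I/II HDAC activity; potency is the fitted concentration of half-maximal effect; nearly all actives have a fitted effect of over 45% in size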
# In short: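 After a 2 hr compound incubation (37C, 5% CO2), HCT-116 cells seeded at 1,500/well the day before received HDAC-Glo reagent; signal read as luminescence after 30 min at room temperature.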
# Tags give direction and shape of the fitted curve or compound fluorescence and quenching.
smiles,measurement,setting,value
CCCCCCCCCCn1cc[n+](CCCCCCCCCC)c1C,Potency,[1],active: 2.17 µM
same,Potency,[2],active: 0.077 µM
same,Potency,[3],"inconclusive: 68.7 µM [cytotoxic, single point]"
same,Potency,[4],active: 27.3 µM
same,Potency,[5],active: 54.5 µM
same,Potency,[6],active: 30.7 µM
CCCC(=O)c1cc(O)c(O)cc1O,Potency,[7],inconclusive: 54.5 µM [cytotoxic]
same,Potency,[8],"inconclusive: 24.3 µM [cytotoxic, partial curve]"
same,Potency,[2],active: 27.3 µM
same,Potency,[3],inconclusive: 54.5 µM [partial curve]
same,Potency,[9],active: 54.5 µM
same,Potency,[10],inconclusive: 27.3 µM [cytotoxic]
same,cAMP activity change,[11],inconclusive: -2.83%
same,Potency,[5],inconclusive: 61.1 µM
Oc1c(Cl)cc(Cl)c(Cl)c1Cc1c(O)c(Cl)cc(Cl)c1Cl,Potency,[7],"inconclusive: 8.61 µM [cytotoxic, full curve] and inconclusive: 12.2 µM [cytotoxic, full curve] and active: 8.41 µM"
same,Potency,[8],inconclusive: 30.5 µM [cytotoxic] and inconclusive: 27.3 µM [cytotoxic]
same,Potency,[2],"active: 1.93 µM and active: 1.54 µM and inconclusive: 3.76 µM [inhibitor, full curve]"
same,"activity, negative = inhibition",[3],inconclusive: -41.8% [at 42.5 µM]
same,Potency,[10],"active: 60.9 µM and active: 30.6 µM and inconclusive: 1.88 µM [cytotoxic, full curve]"
same,"activity change, negative = inhibition",[5],inconclusive: -15.4%
same,Potency,[6],"inconclusive: 15.3 µM [cytotoxic, full curve] and inconclusive: 8.63 µM [cytotoxic, full curve]"
CN(C)C(=O)C1(N2CCCCC2)CCN(CC[C@@]2(c3ccc(Cl)c(Cl)c3)CN(C(=O)c3ccccc3)CCO2)CC1,Potency,[7],active: 50.9 µM
same,Potency,[3],active: 16.1 µM
same,Potency,[5],active: 64.1 µM
same,Potency,[6],active: 57.1 µM
Clc1ccc(C(Cn2ccnc2)OCc2c(Cl)cccc2Cl)c(Cl)c1 (stereo unspecified),Potency,[1],active: 8.41 µM
same,Potency,[12],"inconclusive: 33.5 µM [cytotoxic, partial curve, poor fit]"
same,Potency,[2],"inconclusive: 13.3 µM [inhibitor, partial curve, poor fit]"
same,Potency,[4],active: 23.7 µM
CC(C)(C)NC(=O)[C@@H]1C[C@@H]2CCCC[C@@H]2CN1C[C@@H](O)[C@H](Cc1ccccc1)NC(=O)[C@H](CC(N)=O)NC(=O)c1ccc2ccccc2n1,Potency,[7],active: 61.9 µM
same,Potency,[8],active: 13.9 µM
same,activation,[13],inconclusive: -17%
same,Potency,[3],active: 17.5 µM
same,Potency,[9],active: 61.9 µM
same,Potency,[10],active: 55.2 µM
COc1ccc(-c2ccc3cc(C(=O)O)ccc3c2)cc1C12CC3CC(CC(C3)C1)C2,Potency,[7],"inconclusive: 26.6 µM [cytotoxic, partial curve]"
same,Potency,[12],"inconclusive: 29.8 µM [cytotoxic, partial curve, poor fit]"
same,Potency,[10],"inconclusive: 13.3 µM [cytotoxic, partial curve, poor fit]"
same,"activity change, negative = inhibition",[5],inconclusive: -9.04% [at 42.5 µM]
CC(=O)c1ccc(S(=O)(=O)NC(=O)NC2CCCCC2)cc1,Potency,[1],inactive
same,Potency,[6],inactive
Cc1ccc(-n2[nH]c(C)c(N=Nc3cccc(-c4cccc(C(=O)O)c4)c3O)c2=O)cc1C,Potency,[7],"inconclusive: 26.6 µM [cytotoxic, partial curve]"
same,Potency,[3],active: 8.41 µM
same,Potency,[10],active: 26.6 µM
same,Potency,[4],"inconclusive: 33.5 µM [cytotoxic, single point]"
C[C@@H]1CC(=O)NN=C1c1ccc(NN=C(C#N)C#N)cc1,Potency,[1],"inconclusive: 11.9 µM [inhibitor, full curve]"
same,Potency,[14],"inconclusive: 33.5 µM [inhibitor, single point]"
same,Potency,[15],"inconclusive: 18.8 µM [inhibitor, partial curve]"
same,Potency,[12],active: 13.3 µM
same,Potency,[8],active: 13.3 µM
same,Potency,[2],"inconclusive: 10.6 µM [inhibitor, partial curve]"
